# Laboratory results published in PubChem BioAssay (NCATS).
# Where “and” joins values, the source holds several entries; their conditions need not be identical. Equal entries are not always repeated. This list was built around the results that the source calls inconclusive (neither active nor inactive); the mix of calls is not that of the screen. For part of these data: Potencies beside an inconclusive call are fits to weak or partial responses and may not hold up. Calls of active or inactive are those of the source. Unless noted, calls follow the shape of the dose curve; as a rule, active = well fitted curve in the direction sought with a large enough effect; inconclusive = small, poorly fitted or top-dose-only effect, or another doubt; inactive = no such curve, though single readings can be large; an effect the other way counts as inactive or inconclusive.
# Key:
# [1] = Viability qHTS for spleen associated tyrosine kinase inhibitor (SYKi) naive MV4-11 cells (AID 1963823); also: nearly all actives have a fitted effect of over 40% in size; also: potency is read from the fitted curve at half-maximal effect
# How it was run: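 Cells: MV4-11, SYK inhibitor naive, 500 per well. Treatment: library compounds, 72 hr, 37 C, 5% CO2. Read-out: CellTiter-Glo luminescence after 10 min RT.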
# [2] = Viability qHTS for spleen associated tyrosine kinase inhibitor (SYKi) drug resistant MV4-11 cells (AID 1963824); also: nearly all actives have a fitted effect of over 35% in size; also: potency is read from the fitted curve at half-maximal effect
# How it was run: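 CellTiter-Glo luminescence, read 10 min after reagent addition, reports viability after a 72 hr compound exposure. Cells are an MV4-11 line made resistant to SYK inhibition, seeded at 500 per well onto compound-containing plates.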
# [3] = Quantitative highthroughput screen to assess conditional lethalithy of NOMO1 cells grown in RPMI1640 with untreated serum (RPMI+s) (AID 1963876); also: nearly all actives have a fitted effect of over 35% in size; also: potency is read from the fitted curve at half-maximal effect
# How it was run: (§1)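 Each medium arm—HPLM with 10% dialyzed FBS, or RPMI1640 with 5 mM glucose and 10% untreated or dialyzed FBS—was screened against an 11-point, 3-fold compound titration for 48 h at 37 °C, with CellTiter-Glo luminescence as endpoint.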
# [4] = Quantitative highthroughput screen to assess conditional lethalithy of NOMO1 cells grown in Human Plasma-Like Medium with dialyzed fetal bovine serum (HPLM+ds) (AID 1963878); also: nearly all actives have a fitted effect of over 35% in size; also: potency is read from the fitted curve at half-maximal effect
# How it was run: as §1
# [5] = Quantitative highthroughput screen to assess conditional lethalithy of SEM cells grown in Human Plasma-Like Medium with dialyzed fetal bovine serum (HPLM+ds) (AID 1963882); also: nearly all actives have a fitted effect of over 35% in size; also: potency is read from the fitted curve at half-maximal effect
# How it was run: as §1
# [6] = Quantitative highthroughput screen to assess conditional lethalithy of SEM cells grown in RPMI1640 with unreated serum (RPMI+s) (AID 1963883); also: nearly all actives have a fitted effect of over 35% in size; also: potency is read from the fitted curve at half-maximal effect
# How it was run: as §1
# [7] = Cellular viability qHTS for adrenocortical cancer (ACC) cell line NCI-H295R (AID 1963990); details: CellTiter-Glo ATP luminescence, 48 h; series mostly up to 46.1 µM; also: nearly all actives have a fitted effect of over 60% in size; also: potency is read from the fitted curve at half-maximal effect
# How it was run: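 Luminescent ATP read-out (CellTiter-Glo, 20 min RT) after 48 h drug exposure of NCI-H295R cells; a titration up to 46 uM final. Data normalized to doxorubicin (100% inhibition) and DMSO (0%); 4-parameter fit gives IC50, max response.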
# [8] = Quantitative highthroughput screen to assess conditional lethalithy of P12 Ichikawa cells grown in RPMI1640 with untreated serum (RPMI+s) (AID 1963881); details: Potency: viability; also: nearly all actives have a fitted effect of over 35% in size; also: potency is read from the fitted curve at half-maximal effect
# How it was run: as §1
# [9] = Cellular viability qHTS for adrenocortical cancer (ACC) cell line SW-13 (AID 1963989); details: SW-13 ACC cells viability, CellTiter-Glo, 48 h; activity (max response): stronger effect = lower value; also: potency is read from the fitted curve at half-maximal effect; nearly all actives have a fitted effect of over 65% in size
# How it was run: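 SW-13 cells in ITS-supplemented serum-free DMEM were plated overnight, then exposed for 48 h at 37C to compound titrations (up to 46 uM final). Viability was read by CellTiter-Glo luminescence; four-parameter logistic fits gave IC50 and efficacy.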
# [10] = target: Polyprotein P1234 (Chikungunya virus (strain S27-African prototype)) (UniProt Q8JUX6); experiment: Selectivity profile for inhibitors of NSP2Pro chikungunya virus (CHIKV): Full length NSP2 enzyme counterscreen (CHIKV-NSP2) (AID 1964101; calls by dose curve; also: nearly all actives have a fitted effect of over 65% in size); details: Full-length CHIKV NSP2 protease enzymatic counterscreen; series mostly up to 50.7 µM
# [11] = target: Polyprotein P1234 (Chikungunya virus (strain S27-African prototype)) (UniProt Q8JUX6); experiment: Selectivity profile for inhibitors of NSP2Pro chikungunya virus (CHIKV): Endogenous NS2/3 peptide Counterscreen (AID 1964103; calls by dose curve; also: nearly all actives have a fitted effect of over 55% in size)
# [12] = test system: Chikungunya virus nsP2 protease; experiment: Confirmatory qHTS for inhibitors of NSP2Pro chikungunya virus (CHIKV) (AID 1964105; calls by dose curve; also: nearly all actives have a fitted effect of over 75% in size)
# [13] = Quantitative highthroughput screen to assess conditional lethalithy of SEM cells grown in RPMI1640 with dialyzed fetal bovine serum (RPMI+ds) (AID 1963884); also: nearly all actives have a fitted effect of over 35% in size; also: potency is read from the fitted curve at half-maximal effect
# How it was run: as §1
# [14] = Quantitative highthroughput screen to assess conditional lethalithy of NOMO1 cells grown in RPMI1640 with dialyzed fetal bovine serum (RPMI+ds) (AID 1963877); also: nearly all actives have a fitted effect of over 30% in size; also: potency is read from the fitted curve at half-maximal effect
# How it was run: as §1
# [15] = Quantitative highthroughput screen to assess conditional lethalithy of P12 Ichikawa cells grown in Human Plasma-Like Medium with dialyzed fetal bovine serum (HPLM+ds) (AID 1963879); details: Potency: viability; also: nearly all actives have a fitted effect of over 35% in size
# How it was run: as §1
# [16] = Quantitative highthroughput screen to assess conditional lethalithy of P12 Ichikawa cells grown in RPMI1640 with dialyzed fetal bovine serum (RPMI+ds) (AID 1963880); details: Potency: P12-Ichikawa viability; also: nearly all actives have a fitted effect of over 35% in size; also: potency is read from the fitted curve at half-maximal effect
# How it was run: as §1
# Tags tell the direction and shape of the fitted curve.
# UniProt Q8JUX6, sequence (Q8JUX6 whole entry, looked up): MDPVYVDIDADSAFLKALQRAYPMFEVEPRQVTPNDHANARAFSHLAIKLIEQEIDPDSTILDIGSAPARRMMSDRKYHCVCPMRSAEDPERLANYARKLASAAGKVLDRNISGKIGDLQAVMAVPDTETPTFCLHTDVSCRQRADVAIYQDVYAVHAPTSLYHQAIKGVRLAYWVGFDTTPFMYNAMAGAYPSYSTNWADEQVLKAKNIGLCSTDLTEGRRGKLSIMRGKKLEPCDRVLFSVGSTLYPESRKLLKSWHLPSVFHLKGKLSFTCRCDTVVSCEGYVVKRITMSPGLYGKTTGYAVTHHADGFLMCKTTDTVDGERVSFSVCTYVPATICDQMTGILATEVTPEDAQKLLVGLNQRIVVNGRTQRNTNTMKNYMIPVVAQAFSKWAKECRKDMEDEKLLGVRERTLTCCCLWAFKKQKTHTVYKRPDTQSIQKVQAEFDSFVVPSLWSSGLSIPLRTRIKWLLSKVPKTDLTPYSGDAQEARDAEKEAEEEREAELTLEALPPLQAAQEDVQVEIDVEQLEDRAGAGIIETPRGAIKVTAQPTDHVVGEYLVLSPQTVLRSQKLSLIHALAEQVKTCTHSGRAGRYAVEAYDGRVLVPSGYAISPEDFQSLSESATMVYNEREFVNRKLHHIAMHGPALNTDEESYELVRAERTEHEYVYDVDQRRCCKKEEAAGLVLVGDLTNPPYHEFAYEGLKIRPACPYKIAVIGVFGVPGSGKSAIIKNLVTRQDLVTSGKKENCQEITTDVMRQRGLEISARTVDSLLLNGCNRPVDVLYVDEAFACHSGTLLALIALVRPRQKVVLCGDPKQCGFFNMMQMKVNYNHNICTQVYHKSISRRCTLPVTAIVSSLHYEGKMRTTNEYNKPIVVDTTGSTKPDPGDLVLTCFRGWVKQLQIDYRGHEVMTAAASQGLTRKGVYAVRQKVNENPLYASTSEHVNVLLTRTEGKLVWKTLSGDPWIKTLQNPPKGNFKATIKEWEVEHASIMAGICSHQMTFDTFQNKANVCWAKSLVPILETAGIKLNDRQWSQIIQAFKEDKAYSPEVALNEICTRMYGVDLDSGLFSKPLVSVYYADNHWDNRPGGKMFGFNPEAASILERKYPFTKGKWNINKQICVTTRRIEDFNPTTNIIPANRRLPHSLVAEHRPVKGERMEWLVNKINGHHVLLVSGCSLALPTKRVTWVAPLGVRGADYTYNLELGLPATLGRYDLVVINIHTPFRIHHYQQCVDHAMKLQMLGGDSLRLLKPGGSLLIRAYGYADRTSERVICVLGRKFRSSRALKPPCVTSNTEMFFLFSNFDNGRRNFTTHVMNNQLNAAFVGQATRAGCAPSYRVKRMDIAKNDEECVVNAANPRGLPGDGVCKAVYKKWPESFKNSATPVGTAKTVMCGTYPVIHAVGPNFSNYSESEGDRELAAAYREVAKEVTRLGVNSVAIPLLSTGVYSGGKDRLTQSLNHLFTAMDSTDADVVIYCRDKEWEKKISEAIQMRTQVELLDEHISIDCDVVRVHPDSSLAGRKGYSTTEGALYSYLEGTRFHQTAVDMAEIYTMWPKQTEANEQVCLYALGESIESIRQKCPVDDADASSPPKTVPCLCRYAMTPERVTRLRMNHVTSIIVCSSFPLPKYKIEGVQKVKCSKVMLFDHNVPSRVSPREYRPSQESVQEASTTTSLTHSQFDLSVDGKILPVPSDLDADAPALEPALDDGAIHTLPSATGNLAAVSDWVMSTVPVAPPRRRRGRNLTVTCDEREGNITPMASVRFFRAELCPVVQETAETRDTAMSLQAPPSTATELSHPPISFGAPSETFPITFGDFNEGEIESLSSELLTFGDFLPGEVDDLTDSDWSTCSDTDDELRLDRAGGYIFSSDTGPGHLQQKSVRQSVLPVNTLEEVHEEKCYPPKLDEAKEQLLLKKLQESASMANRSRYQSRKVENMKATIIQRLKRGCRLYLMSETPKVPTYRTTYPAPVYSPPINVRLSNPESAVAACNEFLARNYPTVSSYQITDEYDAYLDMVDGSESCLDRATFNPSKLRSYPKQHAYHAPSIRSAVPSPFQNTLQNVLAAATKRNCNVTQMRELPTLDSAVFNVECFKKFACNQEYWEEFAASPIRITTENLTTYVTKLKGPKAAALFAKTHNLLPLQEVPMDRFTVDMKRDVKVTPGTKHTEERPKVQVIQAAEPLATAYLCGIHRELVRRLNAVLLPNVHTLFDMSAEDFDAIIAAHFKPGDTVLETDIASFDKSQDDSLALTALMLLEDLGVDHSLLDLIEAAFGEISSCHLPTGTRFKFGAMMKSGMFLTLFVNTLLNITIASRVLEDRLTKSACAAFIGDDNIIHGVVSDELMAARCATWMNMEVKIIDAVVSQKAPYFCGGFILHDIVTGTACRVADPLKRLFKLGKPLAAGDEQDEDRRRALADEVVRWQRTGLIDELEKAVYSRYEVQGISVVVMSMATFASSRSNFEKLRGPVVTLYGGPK
smiles,measurement,setting,value
COc1ccc(N(C(=O)Oc2c(C)cccc2C)c2ccnc(Nc3ccc(N4CCN(C)CC4)cc3)n2)c(OC)c1,Potency,[1],"inconclusive: 0.731 µM [cytotoxic, full curve]"
same,Potency,[2],active: 1.16 µM and active: 2.35 µM
same,Potency,[3],"inconclusive: 37.2 µM [cytotoxic, single point]"
same,Potency,[4],"inconclusive: 37.2 µM [cytotoxic, single point]"
same,Potency,[5],"inconclusive: 37.2 µM [cytotoxic, single point]"
same,Potency,[6],"inconclusive: 37.2 µM [cytotoxic, single point]"
same,Potency,[7],active: 12.6 µM
COC1(CS(=O)c2ccccc2)CCN(CCc2c[nH]c3ccc(F)cc23)CC1 (stereo unspecified),Potency,[1],"inconclusive: 20.9 µM [cytotoxic, single point]"
same,Potency,[2],"inconclusive: 29.5 µM [cytotoxic, single point]"
same,Potency,[4],active: 26.4 µM
same,Potency,[7],inactive
COC[C@H]1OC(=O)c2coc3c2[C@@]1(C)C1=C(C3=O)C2CCC(=O)[C@@]2(C)C[C@H]1OC(C)=O (stereo partly specified),Potency,[1],"inconclusive: 20.6 µM [cytotoxic, partial curve]"
same,Potency,[2],"active: 16.4 µM and inconclusive: 20.6 µM [cytotoxic, partial curve, poor fit] and active: 3.72 µM"
same,Potency,[8],inactive
same,Potency,[9],"inconclusive: 31.6 µM [cytotoxic, single point]"
same,Potency,[7],"inconclusive: 35.5 µM [cytotoxic, single point]"
same,Potency,[10],inactive
same,Potency,[11],inactive
same,Potency,[12],inactive
O=c1[nH]c2ccc(Cl)cc2c(N[C@@H]2CN3CCC2CC3)c1-c1nc2ccccc2[nH]1,Potency,[1],"inconclusive: 11.6 nM [cytotoxic, full curve] and inconclusive: 23.5 nM [cytotoxic, full curve]"
same,Potency,[2],"inconclusive: 18.4 nM [cytotoxic, full curve] and inconclusive: 29.5 nM [cytotoxic, full curve]"
same,Potency,[4],"inconclusive: 0.132 µM [cytotoxic, full curve]"
same,Potency,[8],active: 0.166 µM
CN(C)CCc1ccc(O)cc1,Potency,[1],inactive
same,Potency,[2],inactive
same,Potency,[4],inactive
same,Potency,[6],inactive
same,Potency,[7],inactive
C[C@](O)(COc1ccc(C#N)cc1)C(=O)Nc1ccc(C#N)c(C(F)(F)F)c1,Potency,[1],active: 18.6 µM
same,Potency,[2],"inconclusive: 18.6 µM [cytotoxic, partial curve, poor fit]"
same,Potency,[5],"inconclusive: 11.8 µM [cytotoxic, single point]"
same,Potency,[6],"inconclusive: 8.33 µM [cytotoxic, full curve]"
same,Potency,[13],"inconclusive: 11.8 µM [cytotoxic, single point]"
same,Potency,[7],active: 17.8 µM
CC(=O)N(C)c1cccc(-c2ccnc3c(C(=O)c4cccs4)cnn23)c1,Potency,[1],"inconclusive: 23.1 µM [cytotoxic, single point]"
same,Potency,[2],"inconclusive: 29.1 µM [cytotoxic, single point]"
same,Potency,[14],inactive
same,Potency,[13],inactive
O=C(NCC1CCOCC1)c1cnc(Nc2ccc(Cl)cc2Cl)nc1C(F)(F)F,Potency,[1],"inconclusive: 461 nM [cytotoxic, full curve] and inconclusive: 16.6 µM [cytotoxic, partial curve]"
same,Potency,[2],"inconclusive: 1.64 µM [cytotoxic, full curve] and inconclusive: 13.2 µM [cytotoxic, partial curve]"
same,Potency,[5],inactive
same,Potency,[13],inactive
COc1ccc(C(CN(C)C)C2(O)CCCCC2)cc1 (stereo unspecified),Potency,[1],"inconclusive: 9.44 µM [cytotoxic, partial curve, poor fit]"
same,Potency,[2],inactive
same,Potency,[14],"inconclusive: 0.0012 µM [rising, full curve]"
same,Potency,[4],inactive
same,Potency,[5],inconclusive: 0.001 µM
same,Potency,[6],inconclusive: 0.001 µM
CCOP(=O)(OCC)C(C)NC(=O)N(CCCl)N=O (stereo unspecified),Potency,[1],inactive
same,Potency,[2],active: 16.6 µM
same,Potency,[3],"inconclusive: 1.87 µM [rising, full curve, poor fit]"
same,Potency,[15],inactive
same,Potency,[16],inactive
same,Potency,[5],inactive
same,Potency,[13],"inconclusive: 18.7 µM [cytotoxic, partial curve, poor fit]"
CCCC(C)(COC(N)=O)COC(=O)NC(C)C (stereo unspecified),Potency,[1],inactive
same,Potency,[2],inactive
same,Potency,[3],inactive
same,Potency,[5],inactive
same,Potency,[13],"inconclusive: 0.0017 µM [rising, full curve, poor fit]"
Cc1ccccc1-n1c(Cn2ncc3c(N)ncnc32)nc2cccc(C)c2c1=O,Potency,[1],"inconclusive: 4.68 µM [cytotoxic, full curve]"
same,Potency,[2],"inconclusive: 20.6 µM [cytotoxic, partial curve]"
same,Potency,[4],"inconclusive: 0.418 µM [cytotoxic, full curve]"
same,Potency,[16],active: 3.32 µM
same,Potency,[13],inactive
same,Potency,[7],"inconclusive: 0.0112 µM [rising, full curve]"
